B1: hGLP-1-Fc-GlP (Ag) fusion protein: GLP-1 fused to GlP(Ag) (amino acids 1-42) via a hinge-CH2-CH3 Fc domain derived from IgG1; SEQ ID NO: 93 (protein)
chain: MEFGLSWVFLVAIIKGVQCHGEGTFTSDVSSYLEEQAAKEFIAWLVKGRG[letters of human IgG1 Fc with changes left out]IEGRMDYAEGTFISDYSIAMDKIHQQDFVNWLLAQKGKKNDWKHNITQ
B2: hGLP-1-Fc-GlP (AntPro3) fusion protein: GLP-1 fused to GlP(AntPro3) (amino acids 1-42, E3P) via a hinge-CH2-CH3 Fc domain derived from IgG1; SEQ ID NO: 95 (protein)
chain: MEFGLSWVFLVAIIKGVQCHGEGTFTSDVSSYLEEQAAKEFIAWLVKGRG[letters of human IgG1 Fc with changes left out]IEGRMDYAPGTFISDYSIAMDKIHQQDFVNWLLAQKGKKNDWKHNITQ

What was measured:
[1] = system: rat insulinoma INS-1 cells; test: in vitro glucose-stimulated insulin secretion (GSIS) in INS-1 cells; assay type: cell-based; conditions: 1 hour glucose, then 2 hour incubation; ELISA
Source text: X is a known inducer of GSIS.

[2] = Glucose tolerance test (GTT) model in HFD-fed mice; assay type: in vivo, mice (Male C57BL/6); conditions: i.v. treatment, 18 hours fast, 2 g/kg glucose, 15 min to 2 hours; for serum glucose following glucose administration: vs PBS control
Protocol: Cages were changed once, then changed once a week.
The mice administered the above treatment by i.v. injections. The mice were then fasted for 18 hours and administered a dose of 2 g/kg glucose by i.v. injections. Blood samples were drawn by tail clip bleeding at 15, 30 and 60 minutes post dosing and cardiac bleeding was used at 2 hours after glucose injection as end-point.

[3] = Longer-term obesity model in HFD-fed mice; conditions: for blood glucose levels: Days 0, 1, 10 and 15; for blood glucose levels / average daily food intake: compared to the untreated mice; for weights of individual mice: FIG. 8B; for plasma insulin levels on Day 15: FIG. 8C right panel; for plasma insulin levels on Day 1: between 15 and 120 minutes after treatment; for liver weight / subcutaneous white adipose tissue (sWAT) weight: day 19 terminal necropsy, vs PBS control; for decrease in collagen staining in comparison with tirzepatide or dulaglutide: picrosirius red liver sections; for change in body weight: tail vein dosing Day 0, 4, 7, 10, 14, 18, weighed every 2 days; for tolerability, clinical observations: tail vein dosing Day 0 to Day 18; for collagen staining (fibrosis), picrosirius red liver sections / hepatocellular ballooning and steatosis, H&E liver histology: vs vehicle-treated mice
Protocol: Mice (Male C57BL/6) were of approximately 13 weeks of age were housed 4 mice per cage. Following 2 weeks of acclimatation, mice were introduced to 60% kcal HFD (Research Diets D12492). Cages were changed once, then changed once a week. Weekly body weights and non-fasted blood glucose were collected.
Mice were injected by tail vein with vehicle or the drugs on Day 0, Day 4, Day 7, Day 10, Day 14, and Day 18. Body weights were measured every 2 days. Change in body weight was calculated and plotted.
Cumulative food intake was measured between day 0 and 3, between day 4 and 7, between day 7 and day 11, and between day 11 and day 14, and represented as average daily food intake. For food consumption, remaining food was weighed on days 3, 8, and 15, and subtracted from the starting weight. This value was then normalized to the number of mice in the cage, and the number of days the mice had access to the food prior to weighing.
Blood glucose levels were measured on Days 0, 1, 10 and 15 and plotted.
On day 19 during terminal necropsy, liver and subcutaneous white adipose tissue were recovered weighed from treated animals.
To further analyze the changes in liver, histopathological analysis was conducted. Briefly, the liver tissue was stained with hematoxylin and eosin (H&E) and evaluated using standard techniques.

Row | Molecule | insulin in the culture supernatant (GSIS) [1] | serum insulin following glucose administration [2] | serum glucose following glucose administration [2] | blood glucose levels [3] | weights of individual mice [3] | plasma insulin levels on Day 15 [3] | plasma insulin levels on Day 1 [3] | average daily food intake [3] | liver weight [3] | subcutaneous white adipose tissue (sWAT) weight [3] | decrease in collagen staining in comparison with tirzepatide or dulaglutide [3] | change in body weight [3] | tolerability, clinical observations [3] | collagen staining (fibrosis), picrosirius red liver sections [3] | hepatocellular ballooning and steatosis, H&E liver histology [3]
1 | B1 | stimulated insulin production to a similar, if not greater magnitude than dulaglutide or tirzepatide | rapid induction of insulin | much smaller increase in serum glucose | decrease in blood glucose | induced weight loss | significant decrease in the levels of insulin | rapid decrease in insulin levels | decrease in food intake | livers of control mice that received only PBS were much heavier | decreased | greater decrease in collagen staining compared to the livers from mice treated with tirzepatide or dulaglutide | progressive weight loss | well tolerated and no overt toxicities were noted | decrease in collagen staining | decrease in hepatocellular ballooning and steatosis
2 | B2 |  | rapid induction of insulin | much smaller increase in serum glucose | decrease in blood glucose | induced weight loss | significant decrease in the levels of insulin | rapid decrease in insulin levels | decrease in food intake | livers of control mice that received only PBS were much heavier | decreased | greater decrease in collagen staining compared to the livers from mice treated with tirzepatide or dulaglutide | progressive weight loss | well tolerated and no overt toxicities were noted | decrease in collagen staining | decrease in hepatocellular ballooning and steatosis

Source: US20250066446A1, “FUSION PROTEINS FOR THE TREATMENT OF CARDIOMETABOLIC DISEASES” (Shattuck Labs, Inc., priority 2022, published 2025)
